According to the supplement of paper PMC9588766:
Counter-ions that a name gives are not always drawn. In all, about 1,900 compounds were measured (“cell viability of compound + 1 nM pemigatinib relative to pemigatinib-only (DMSO) wells”: median about 0.95, lowest 2% from about 0.22 on). Some of the results follow.

What follows are compounds tested on PDC-DUC18828 (assay: cell viability of compound + 1 nM pemigatinib relative to pemigatinib-only (DMSO) wells (fraction); PDC-DUC18828 is a patient-derived cholangiocarcinoma cell line; higher = less growth inhibition). Details: first compound 1 µM; pemigatinib concentration 1 nM; 72 h.
Procedure: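 Selleck Bioactive library screen in the patient-derived FGFR2 fusion-positive ICC cell line PDC-DUC18828 (500 cells/well). Each compound was tested at 1 uM with 1 nM pemigatinib, in triplicate, for 72 h. Viability was read by CellTiter-Glo and normalised to plate DMSO controls. Value is the paper's averaged normalised viability.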
With `CN1[C@@H]2C[C@@H](OC(=O)[C@H](CO)c3ccccc3)C[C@H]1[C@@H]1O[C@@H]12` [Scopolamine HBr] + CCN1C(=O)N(c2c(F)c(OC)cc(OC)c2F)Cc2cnc3[nH]c(CN4CCOCC4)cc3c21 [pemigatinib] the cell viability was 0.952.
With `CN(C)CCc1ccc(O)cc1` [Hordenine] + CCN1C(=O)N(c2c(F)c(OC)cc(OC)c2F)Cc2cnc3[nH]c(CN4CCOCC4)cc3c21 [pemigatinib] the cell viability was 0.936.
Work on `COc1ccc(N(C(=O)Oc2c(C)cccc2C)c2ccnc(Nc3ccc(N4CCN(C)CC4)cc3)n2)c(OC)c1` + CCN1C(=O)N(c2c(F)c(OC)cc(OC)c2F)Cc2cnc3[nH]c(CN4CCOCC4)cc3c21 [pemigatinib] yielded a cell viability of 0.982.
In the case of `COC1=C[C@@H]2[C@@H]3Cc4ccc(OC)c(O)c4[C@]2(CCN3C)CC1=O` [Sinomenine] + CCN1C(=O)N(c2c(F)c(OC)cc(OC)c2F)Cc2cnc3[nH]c(CN4CCOCC4)cc3c21 [pemigatinib], the cell viability is reported as 0.956.
`CC(C)[C@]12O[C@H]1[C@@H]1O[C@]13[C@]1(O[C@H]1C[C@H]1C4=C(CC[C@@]13C)C(=O)OC4)[C@@H]2O` [Triptolide (PG490)] + CCN1C(=O)N(c2c(F)c(OC)cc(OC)c2F)Cc2cnc3[nH]c(CN4CCOCC4)cc3c21 [pemigatinib] was tested, and the cell viability was 0.221.
Work on `CC(C)(C)c1cc(C=C(C#N)C#N)cc(Br)c1O` + CCN1C(=O)N(c2c(F)c(OC)cc(OC)c2F)Cc2cnc3[nH]c(CN4CCOCC4)cc3c21 [pemigatinib] yielded a cell viability of 0.966.
`CC(NC(C)(C)C)C(=O)c1cccc(Cl)c1` (centres undefined) [Amfebutamone HCl] + CCN1C(=O)N(c2c(F)c(OC)cc(OC)c2F)Cc2cnc3[nH]c(CN4CCOCC4)cc3c21 [pemigatinib] was tested, and the cell viability was 0.961.
`Cn1c(CCCC(=O)O)nc2cc(N(CCCl)CCCl)ccc21` [Bendamustine HCl] + CCN1C(=O)N(c2c(F)c(OC)cc(OC)c2F)Cc2cnc3[nH]c(CN4CCOCC4)cc3c21 [pemigatinib] was tested, and the cell viability was 0.984.
In the case of `O=C1CC[C@@]2(O)[C@H]3Cc4ccc(O)c5c4[C@@]2(CCN3CC2CC2)[C@H]1O5` [Naltrexone HCl] + CCN1C(=O)N(c2c(F)c(OC)cc(OC)c2F)Cc2cnc3[nH]c(CN4CCOCC4)cc3c21 [pemigatinib], the cell viability is reported as 1.05.
With `CN1[C@@H]2CC(O)C[C@H]1[C@@H]1O[C@@H]12` (some centres undefined) [Scopine] + CCN1C(=O)N(c2c(F)c(OC)cc(OC)c2F)Cc2cnc3[nH]c(CN4CCOCC4)cc3c21 [pemigatinib] the cell viability was 0.941.
In the case of `CC1(C)CC(O)CC(C)(C)N1[O]` [Tempol] + CCN1C(=O)N(c2c(F)c(OC)cc(OC)c2F)Cc2cnc3[nH]c(CN4CCOCC4)cc3c21 [pemigatinib], the cell viability is reported as 0.935.
With `O=S(=O)(CC1CS1)c1ccc(Oc2ccccc2)cc1` (centres undefined) + CCN1C(=O)N(c2c(F)c(OC)cc(OC)c2F)Cc2cnc3[nH]c(CN4CCOCC4)cc3c21 [pemigatinib] the cell viability was 0.996.
`O=c1[nH]c2ccccc2n1CCCN1CCC(n2c(=O)[nH]c3cc(Cl)ccc32)CC1` [Domperidone] + CCN1C(=O)N(c2c(F)c(OC)cc(OC)c2F)Cc2cnc3[nH]c(CN4CCOCC4)cc3c21 [pemigatinib] was tested, and the cell viability was 0.936.
With `C/C(=C\c1csc(C)n1)[C@@H]1C[C@@H]2O[C@]2(C)CCC[C@H](C)[C@H](O)[C@@H](C)C(=O)C(C)(C)[C@@H](O)CC(=O)O1` [Epothilone B (EPO906, Patupilone)] + CCN1C(=O)N(c2c(F)c(OC)cc(OC)c2F)Cc2cnc3[nH]c(CN4CCOCC4)cc3c21 [pemigatinib] the cell viability was 0.211.
For `C=CC[C@]1(O)CC[C@H]2[C@@H]3CCC4=CC(=O)CCC4=C3C=C[C@@]21C` [Altrenogest] + CCN1C(=O)N(c2c(F)c(OC)cc(OC)c2F)Cc2cnc3[nH]c(CN4CCOCC4)cc3c21 [pemigatinib], the cell viability was 0.926.
`COC[C@H]1OC(=O)c2coc3c2[C@@]1(C)C1=C(C3=O)[C@@H]2CCC(=O)[C@@]2(C)C[C@H]1OC(C)=O` [Wortmannin] + CCN1C(=O)N(c2c(F)c(OC)cc(OC)c2F)Cc2cnc3[nH]c(CN4CCOCC4)cc3c21 [pemigatinib] was tested, and the cell viability was 0.719.
In the case of `C=C[C@H]1CN2CC[C@H]1C[C@H]2[C@H](O)c1ccnc2ccccc12` [Cinchonidine] + CCN1C(=O)N(c2c(F)c(OC)cc(OC)c2F)Cc2cnc3[nH]c(CN4CCOCC4)cc3c21 [pemigatinib], the cell viability is reported as 1.03.
`Cc1cccc(C(C)c2c[nH]cn2)c1C` (centres undefined) [Medetomidine HCl] + CCN1C(=O)N(c2c(F)c(OC)cc(OC)c2F)Cc2cnc3[nH]c(CN4CCOCC4)cc3c21 [pemigatinib] showed a cell viability of 0.953.
`NCCc1ccc(S(=O)(=O)F)cc1` + CCN1C(=O)N(c2c(F)c(OC)cc(OC)c2F)Cc2cnc3[nH]c(CN4CCOCC4)cc3c21 [pemigatinib] gave a cell viability of 1.
`Fc1cc(F)c2c(c1)[C@H]1C=CC[C@H]1C(c1cccnc1)N2` (some centres undefined) [Golgicide A] + CCN1C(=O)N(c2c(F)c(OC)cc(OC)c2F)Cc2cnc3[nH]c(CN4CCOCC4)cc3c21 [pemigatinib] was tested, and the cell viability was 0.953.
`CN1[C@@H]2CC[C@H]1C[C@@H](OC(=O)[C@H](CO)c1ccccc1)C2` [Hyoscyamine] + CCN1C(=O)N(c2c(F)c(OC)cc(OC)c2F)Cc2cnc3[nH]c(CN4CCOCC4)cc3c21 [pemigatinib] gave a cell viability of 0.979.
`Nc1nc(N)nc(NC2CC2)n1` [Cyromazine] + CCN1C(=O)N(c2c(F)c(OC)cc(OC)c2F)Cc2cnc3[nH]c(CN4CCOCC4)cc3c21 [pemigatinib] gave a cell viability of 0.99.
For `c1cc2c(cc1[C@H]1OC[C@H]3[C@@H]1CO[C@@H]3c1ccc3c(c1)OCO3)OCO2` [Sesamin] + CCN1C(=O)N(c2c(F)c(OC)cc(OC)c2F)Cc2cnc3[nH]c(CN4CCOCC4)cc3c21 [pemigatinib], the cell viability was 0.925.
`Cc1cc(O)ccc1Cl` [Chlorocresol] + CCN1C(=O)N(c2c(F)c(OC)cc(OC)c2F)Cc2cnc3[nH]c(CN4CCOCC4)cc3c21 [pemigatinib] gave a cell viability of 0.996.
`C[C@H]1CCC/C=C/[C@@H]2C[C@H](O)C[C@H]2[C@H](O)/C=C/C(=O)O1` [Brefeldin A] + CCN1C(=O)N(c2c(F)c(OC)cc(OC)c2F)Cc2cnc3[nH]c(CN4CCOCC4)cc3c21 [pemigatinib] gave a cell viability of 0.016.
In the case of `COc1cc(-n2c(=S)[nH]c3ccccc3c2=O)c(Cl)cc1Cl` [Mdivi-1] + CCN1C(=O)N(c2c(F)c(OC)cc(OC)c2F)Cc2cnc3[nH]c(CN4CCOCC4)cc3c21 [pemigatinib], the cell viability is reported as 0.952.
With `CCCN1C[C@H](CSC)C[C@@H]2c3cccc4[nH]cc(c34)C[C@H]21` [Pergolide mesylate] + CCN1C(=O)N(c2c(F)c(OC)cc(OC)c2F)Cc2cnc3[nH]c(CN4CCOCC4)cc3c21 [pemigatinib] the cell viability was 0.901.
`CC(=O)Nc1ccc(Cc2ccc(NC(C)=O)cc2)cc1` + CCN1C(=O)N(c2c(F)c(OC)cc(OC)c2F)Cc2cnc3[nH]c(CN4CCOCC4)cc3c21 [pemigatinib] was tested, and the cell viability was 1.04.
`C[N+](C)(C)CCCCCCCCCC[N+](C)(C)C` [Decamethonium Bromide] + CCN1C(=O)N(c2c(F)c(OC)cc(OC)c2F)Cc2cnc3[nH]c(CN4CCOCC4)cc3c21 [pemigatinib] showed a cell viability of 0.94.
`O=C(O)CNC(=O)c1c(O)c2ccccc2n(Cc2ccccc2)c1=O` + CCN1C(=O)N(c2c(F)c(OC)cc(OC)c2F)Cc2cnc3[nH]c(CN4CCOCC4)cc3c21 [pemigatinib] gave a cell viability of 0.876.
In the case of `CCNC(=O)C[C@@H]1N=C(c2ccc(Cl)cc2)c2cc(OC)ccc2-n2c(C)nnc21` + CCN1C(=O)N(c2c(F)c(OC)cc(OC)c2F)Cc2cnc3[nH]c(CN4CCOCC4)cc3c21 [pemigatinib], the cell viability is reported as 0.925.
Work on `CN1c2ccccc2C(NCCCCCCC(=O)O)c2ccc(Cl)cc2S1(=O)=O` (centres undefined) [Tianeptine sodium] + CCN1C(=O)N(c2c(F)c(OC)cc(OC)c2F)Cc2cnc3[nH]c(CN4CCOCC4)cc3c21 [pemigatinib] yielded a cell viability of 0.986.
For `NC(=O)CN1CC(O)CC1=O` (centres undefined) [Oxiracetam] + CCN1C(=O)N(c2c(F)c(OC)cc(OC)c2F)Cc2cnc3[nH]c(CN4CCOCC4)cc3c21 [pemigatinib], the cell viability was 0.995.
`COc1cc([C@@H]2c3cc4c(cc3[C@H](O)[C@H]3COC(=O)[C@@H]23)OCO4)cc(OC)c1OC` [Picropodophyllin (PPP)] + CCN1C(=O)N(c2c(F)c(OC)cc(OC)c2F)Cc2cnc3[nH]c(CN4CCOCC4)cc3c21 [pemigatinib] showed a cell viability of 0.42.
With `CN1CCC(c2c[nH]c3ccc(O)cc23)CC1` + CCN1C(=O)N(c2c(F)c(OC)cc(OC)c2F)Cc2cnc3[nH]c(CN4CCOCC4)cc3c21 [pemigatinib] the cell viability was 0.932.
For `C1=C2CCCN[C@H]2[C@@H]2C[C@H]1[C@H]1CCCCN1C2` [Aloperine] + CCN1C(=O)N(c2c(F)c(OC)cc(OC)c2F)Cc2cnc3[nH]c(CN4CCOCC4)cc3c21 [pemigatinib], the cell viability was 0.913.
In the case of `O=C(O)CCCc1ccc(N(CCCl)CCCl)cc1` [Chloroambucil] + CCN1C(=O)N(c2c(F)c(OC)cc(OC)c2F)Cc2cnc3[nH]c(CN4CCOCC4)cc3c21 [pemigatinib], the cell viability is reported as 0.958.
In the case of `CC[C@@H](C(N)=O)N1CCCC1=O` [Levetiracetam] + CCN1C(=O)N(c2c(F)c(OC)cc(OC)c2F)Cc2cnc3[nH]c(CN4CCOCC4)cc3c21 [pemigatinib], the cell viability is reported as 0.944.
For `COc1ccc(C(=O)N2CCCC2=O)cc1` [Aniracetam] + CCN1C(=O)N(c2c(F)c(OC)cc(OC)c2F)Cc2cnc3[nH]c(CN4CCOCC4)cc3c21 [pemigatinib], the cell viability was 0.918.
